Measured values from paper PMC11928274 (Cell chemical biology, 2025).

Target: Hsc70 (HSPA8), biotinylated (human, UniProt P11142, biotin (BirA bulk kit))
Assay: flow cytometry on cells

Sequence of UniProt P11142 (P11142 whole entry): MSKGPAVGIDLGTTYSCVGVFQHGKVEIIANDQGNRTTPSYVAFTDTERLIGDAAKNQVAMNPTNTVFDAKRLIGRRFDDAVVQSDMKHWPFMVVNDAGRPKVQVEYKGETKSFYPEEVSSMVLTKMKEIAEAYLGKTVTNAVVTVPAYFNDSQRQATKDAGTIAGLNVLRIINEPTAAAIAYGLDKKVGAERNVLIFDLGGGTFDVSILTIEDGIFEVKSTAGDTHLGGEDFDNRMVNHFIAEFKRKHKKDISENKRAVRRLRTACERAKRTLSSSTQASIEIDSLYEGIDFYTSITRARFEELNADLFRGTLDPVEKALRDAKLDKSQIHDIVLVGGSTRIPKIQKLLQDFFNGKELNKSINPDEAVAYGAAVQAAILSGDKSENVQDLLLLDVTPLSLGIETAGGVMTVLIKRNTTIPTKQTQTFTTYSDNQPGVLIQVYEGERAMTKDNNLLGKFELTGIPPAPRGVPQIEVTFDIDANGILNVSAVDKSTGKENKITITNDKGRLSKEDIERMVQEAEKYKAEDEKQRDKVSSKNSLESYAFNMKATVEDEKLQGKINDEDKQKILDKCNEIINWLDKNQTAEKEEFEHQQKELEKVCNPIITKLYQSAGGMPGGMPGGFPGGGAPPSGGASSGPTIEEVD

B1: DnaJB1 (human, native J-domain protein) (natural protein)
chain: MGKDYYQTLGLARGASDEEIKRAYRRQALRYHPDKNKEPGAEEKFKEIAEAYDVLSDPRKREIFDRYGEEGLKGSGPSGGSGGGANGTSFSYTFHGDPHAMFAEFFGGRNPFDTFFGQRNGEEGMDIDDPFSGFPMGMGGFTNVNFGRSRSAQEPARKKQ[left out - about 150 residues]PERIPQTSRTVLEQVLPI
binding result: binds
